Experimental data reported in a collection of fitness landscapes (doi:10.1126/science.1257360).
Some of the results follow.

B1: PhoQ; a variant is named by its letters at X, in order, P23837 (parent)
chain: MKKLLRLFFPLSLRVRFLLATAAVVLVLSLAYGMVALIGYSVSFDKTTFRLLRGESNLFYTLAKWENNKLHVELPENIDKQSPTMTLIYDENGQLLWAQRDVPWLMKMIQPDWLKSNGFHEIEADVNDTSLLLSGDHSIQQQLQEVREDDDDAEMTHSVAVNVYPATSRMPKLTIVVVDTIPVELKSSYMVWSWFIYVLSANLLLVIPLLWVAAWWSLRPIEALAKEVRELEEHNRELLNPATTRELTSLVRNLNRLLKSERERYDKYRTTLTDLTHSLKTPLXXLQXXLRSLRSEKMSVSDAEPVMLEQISRISQQIGYYLHRASMRGGTLLSRELHPVAPLLDNLTSALNKVYQRKGVNISLDISPEISFVGEQNDFVEVMGNVLDNACKYCLEFVEISARQTDEHLYIVVEDDGPGIPLSKREVIFDRGQRVDTLRPGQGVGLAVAREITEQYEGKIVAGESMLGGARMEVIFGRQHSAPKDE

Variants of: B1
Assay: enrichment ratio after two sorts for PhoP signalling (ratio (wild type AVST 3.29)); higher = more functional
Settings: with PhoP (E. coli)

Variant | enrichment ratio
NSCG | ≤ 0.25
HHAM | ≤ 0.25
WLLW | ≤ 0.25
MQYW | ≤ 0.25
RQDH | ≤ 0.25
NFWL | ≤ 0.25
MLPR | ≤ 0.25
HQYW | ≤ 0.25
VNDD | ≤ 0.25
QWST | ≤ 0.25
GVLN | 10.1
QGEK | ≤ 0.25
PNDC | ≤ 0.25
FPPY | ≤ 0.25
WKYL | ≤ 0.25
DTFY | ≤ 0.25
NSRS | ≤ 0.25
QRLP | ≤ 0.25
LHQG | ≤ 0.25
SARI | ≤ 0.25
IQWH | ≤ 0.25
FRIR | ≤ 0.25
FYWT | ≤ 0.25
IGCS | ≤ 0.25

Variant | enrichment ratio
DNSQ | ≤ 0.25
TPWD | ≤ 0.25
PEPA | ≤ 0.25
NTDT | ≤ 0.25
HRHY | ≤ 0.25
TPIH | ≤ 0.25
KLIC | ≤ 0.25
NEHT | ≤ 0.25
NCHR | ≤ 0.25
LRFN | ≤ 0.25
QQRP | ≤ 0.25
HSGL | ≤ 0.25
DAWH | ≤ 0.25
MQWM | 14.1
VLGH | ≤ 0.25
PEMV | ≤ 0.25
GCNF | ≤ 0.25
FSSL | ≤ 0.25
PYEP | ≤ 0.25
PPYP | 0.943
QECI | 5.02
YASC | ≤ 0.25
KSTN | ≤ 0.25
DRHH | ≤ 0.25

Variant | enrichment ratio
LGNR | ≤ 0.25
ILEG | ≤ 0.25
KSIC | ≤ 0.25
NMAG | ≤ 0.25
FQAF | ≤ 0.25
SRVR | 0.281
NKMS | ≤ 0.25
MMGT | ≤ 0.25
WMDP | ≤ 0.25
NISA | ≤ 0.25
GVTA | ≤ 0.25
TTRG | ≤ 0.25
GAPI | ≤ 0.25
LPIQ | ≤ 0.25
GWRD | ≤ 0.25
FSLR | ≤ 0.25
VWSA | ≤ 0.25
SWRY | ≤ 0.25
KCCI | ≤ 0.25
HGMC | 13.3
SKAN | ≤ 0.25
MIQS | ≤ 0.25
PDQR | ≤ 0.25
KHSL | ≤ 0.25

Variant | enrichment ratio
RSKM | ≤ 0.25
LESW | ≤ 0.25
NWQF | ≤ 0.25
GTQD | ≤ 0.25
LKLK | ≤ 0.25
FRTS | ≤ 0.25
NDMM | ≤ 0.25
WLYC | ≤ 0.25
ELML | ≤ 0.25
LTTP | ≤ 0.25
MFFH | ≤ 0.25
YCLF | 0.497
EKCV | ≤ 0.25
YWIV | ≤ 0.25
TTAY | 1.38
ARAK | ≤ 0.25
GSDK | ≤ 0.25
RLER | ≤ 0.25
INVY | ≤ 0.25
AWCH | ≤ 0.25
LHTM | ≤ 0.25
WLDR | ≤ 0.25
GYFA | ≤ 0.25
EMGI | ≤ 0.25

Variant | enrichment ratio
NMIW | ≤ 0.25
WYNG | ≤ 0.25
HYWD | ≤ 0.25
RTCK | ≤ 0.25
LQKL | ≤ 0.25
MNEK | ≤ 0.25
DPHA | ≤ 0.25
SGTF | 2.63
HHLY | ≤ 0.25
DLFF | ≤ 0.25
IDDD | ≤ 0.25
KISV | ≤ 0.25
TGWM | 0.965
TMAS | 15
WGDK | ≤ 0.25
LYGA | ≤ 0.25
QDCI | ≤ 0.25
FWRL | ≤ 0.25
QHFW | ≤ 0.25
LHVR | ≤ 0.25
GKCI | ≤ 0.25
HQIF | ≤ 0.25
DECA | ≤ 0.25
NWDD | ≤ 0.25

Variant | enrichment ratio
NAQF | ≤ 0.25
FWKM | ≤ 0.25
YRNQ | ≤ 0.25
RSHS | ≤ 0.25
PYLY | ≤ 0.25
AQSP | ≤ 0.25
ESVN | ≤ 0.25
GEKC | ≤ 0.25
FYMQ | ≤ 0.25
IIIQ | ≤ 0.25
MEEF | ≤ 0.25
GNDN | 0.537
DFKW | ≤ 0.25
KDNA | ≤ 0.25
QPAN | ≤ 0.25
TVWH | 2.12
MQDF | ≤ 0.25
IMLG | ≤ 0.25
IWAD | ≤ 0.25
FVGC | ≤ 0.25
HDHW | ≤ 0.25
PHAT | ≤ 0.25
MHWF | ≤ 0.25
HMIR | ≤ 0.25

Variant | enrichment ratio
YSDM | ≤ 0.25
QWCS | ≤ 0.25
FGAV | ≤ 0.25
FPKH | ≤ 0.25
FQVI | ≤ 0.25
SEWC | 1.88
MMKM | ≤ 0.25
AQLR | ≤ 0.25
ITFI | ≤ 0.25
QSHR | ≤ 0.25
GKPS | ≤ 0.25
ELQF | ≤ 0.25
MRYG | ≤ 0.25
SWTI | ≤ 0.25
ALGP | ≤ 0.25
NYGF | ≤ 0.25
RLRK | ≤ 0.25
RWSG | ≤ 0.25
MEMQ | ≤ 0.25
HFLA | ≤ 0.25
GKHY | ≤ 0.25
AKAH | 4.55
EDEC | ≤ 0.25
YTCT | ≤ 0.25

Variant | enrichment ratio
DYRH | ≤ 0.25
ADWY | ≤ 0.25
QNTG | ≤ 0.25
ARFI | ≤ 0.25
DRIE | ≤ 0.25
DINM | ≤ 0.25
GIAH | 22.5
LTST | ≤ 0.25
MKIN | ≤ 0.25
LFGY | ≤ 0.25
FDRK | ≤ 0.25
WEMA | ≤ 0.25
QPDL | ≤ 0.25
AWCD | ≤ 0.25
DSWM | ≤ 0.25
SIPQ | ≤ 0.25
PGRV | ≤ 0.25
MEPH | ≤ 0.25
AQTT | 9.04
FLDP | ≤ 0.25
WRNA | ≤ 0.25
YIKT | ≤ 0.25
RPPY | ≤ 0.25
PSAI | ≤ 0.25

Variant | enrichment ratio
TYPP | ≤ 0.25
NCKF | ≤ 0.25
QQVL | 2.39
ILAD | ≤ 0.25
QSNH | 4.12
NFPD | ≤ 0.25
RLQR | ≤ 0.25
WGGP | ≤ 0.25
QCFE | ≤ 0.25
IANT | ≤ 0.25
GDHL | ≤ 0.25
PQKN | ≤ 0.25
PEFH | ≤ 0.25
NDDH | ≤ 0.25
FQEC | ≤ 0.25
QQII | ≤ 0.25
VQPV | ≤ 0.25
SKKQ | ≤ 0.25
FRHQ | ≤ 0.25
KMLD | ≤ 0.25
PSHG | ≤ 0.25
IGVN | ≤ 0.25
AHCK | ≤ 0.25
VIGS | ≤ 0.25

Variant | enrichment ratio
NNTN | ≤ 0.25
SAYG | ≤ 0.25
DAGE | ≤ 0.25
MWSY | ≤ 0.25
QRLA | ≤ 0.25
AQIL | 7.19
YHEI | ≤ 0.25
GRIG | ≤ 0.25
ALIS | ≤ 0.25
GDWA | ≤ 0.25
RIVD | ≤ 0.25
MRVY | ≤ 0.25
ETIR | ≤ 0.25
AFMV | ≤ 0.25
FNCK | ≤ 0.25
GITT | ≤ 0.25
LPTH | ≤ 0.25
VPMM | ≤ 0.25
ATKY | ≤ 0.25
DCAP | ≤ 0.25
NSWH | ≤ 0.25
PRHL | ≤ 0.25
SLCP | ≤ 0.25
KALE | ≤ 0.25

Variant | enrichment ratio
HPRY | ≤ 0.25
VCGD | ≤ 0.25
AFVD | ≤ 0.25
GRRT | ≤ 0.25
GIVH | 8.59
RSTG | ≤ 0.25
SFGW | ≤ 0.25
TKYQ | ≤ 0.25
AQQG | 12.7
AVIY | ≤ 0.25
WNMS | ≤ 0.25
GNPL | ≤ 0.25
TLKR | ≤ 0.25
RAKF | ≤ 0.25
RKEW | ≤ 0.25
IVFD | ≤ 0.25
YDIM | ≤ 0.25
SFVF | ≤ 0.25
LMTQ | ≤ 0.25
DVYT | ≤ 0.25
NPTA | ≤ 0.25
KETR | ≤ 0.25
KNMH | ≤ 0.25
GADI | ≤ 0.25

Variant | enrichment ratio
IGGE | ≤ 0.25
EFAD | ≤ 0.25
NPDG | ≤ 0.25
DNQD | ≤ 0.25
GRFR | ≤ 0.25
LQEM | ≤ 0.25
SNWT | ≤ 0.25
VKFQ | ≤ 0.25
LKPW | ≤ 0.25
VHKK | ≤ 0.25
MGRK | ≤ 0.25
EEPW | ≤ 0.25
AQRA | ≤ 0.25
GIGK | ≤ 0.25
TPHN | ≤ 0.25
NHWM | ≤ 0.25
HDVL | ≤ 0.25
QPQA | ≤ 0.25
ALWS | ≤ 0.25
VQRE | ≤ 0.25
GWAP | ≤ 0.25
GQQA | ≤ 0.25
FFNG | ≤ 0.25
MVPV | ≤ 0.25

Variant | enrichment ratio
NTMW | ≤ 0.25
VINL | ≤ 0.25
KPFW | ≤ 0.25
EPSP | ≤ 0.25
WRRR | ≤ 0.25
MGSE | ≤ 0.25
IPSI | ≤ 0.25
QDGK | ≤ 0.25
TRNN | ≤ 0.25
PDSL | ≤ 0.25
PPWN | ≤ 0.25
RVPR | ≤ 0.25
SNCQ | 9.32
MYKH | ≤ 0.25
VLSL | 0.415
QLYL | 8.95
DSTL | ≤ 0.25
DMIT | ≤ 0.25
